Results reported in the RNAGym collection of RNA variant scans (doi:10.7554/elife.90254).
The source gives no read counts; variants with many changes may rest on few reads.

B1: LINE1-mini (parent)
chain: GGCAGAGCUCAACACAGCGUGGCAAAGUGGCUGUGGCUAGACUGCC

Variants of: B1
Assay: self-cleavage, relative activity (ratio to wild type); higher = more cleavage; in vitro, sequencing; the parent is a self-cleaving ribozyme
G22U G40A A41C gave a self-cleavage of 0.06. Variant G22U G40A C42A has a self-cleavage of 0.01. With G22U G40U G44C the self-cleavage was 0.09. With G22U U28C G44A the self-cleavage was 0.14. G22U U32A G35C showed a self-cleavage of 0.17. In the case of G22U U32C G36C, the self-cleavage is reported as 0.08. For G22U U34G G35U, the self-cleavage was 0.04. In the case of G22U U34G G36A, the self-cleavage is reported as 0.03. C23A A25G G44U gave a self-cleavage of 0.08. C23A A25U C37G showed a self-cleavage of 0.15. In the case of C23A A25U U38G, the self-cleavage is reported as 0.02. Variant C23A A26U G27U C42U has a self-cleavage of 0.36. With C23A A26U G29U U43A C46U the self-cleavage was 0.03. C23A A26U G44A showed a self-cleavage of 0.37. C23A A26U U28G C31U gave a self-cleavage of 0.55. Variant C23A A39G C42A has a self-cleavage of 0.27. C23A C31A G44C gave a self-cleavage of 0.03. With C23A C31A U32A the self-cleavage was 0.19. C23A C31G A39U C42G gave a self-cleavage of 0.02. For C23A C31G A41U G44C C45U, the self-cleavage was 0.04. Variant C23A C31U G35A G44C C46G has a self-cleavage of 0.03. Variant C23A C31U G36A C42A G44U has a self-cleavage of 0.03. In the case of C23A C37A G40C A41G, the self-cleavage is reported as 0. With C23A C37G C46G the self-cleavage was 0.02. C23A C37G U38A gave a self-cleavage of 0.01. For C23A C42U C46A, the self-cleavage was 0.11. C23A G27C U32A showed a self-cleavage of 0.16. Work on C23A G27U U43A G44A yielded a self-cleavage of 0.14. With C23A G29A G35A the self-cleavage was 0.19. With C23A G29C C31G G36C C45U the self-cleavage was 0.29. C23A G29C C45G gave a self-cleavage of 0.16. Work on C23A G29C C46G yielded a self-cleavage of 1.51. With C23A G30C C45U the self-cleavage was 0.9. With C23A G30C G44A the self-cleavage was 0.2. For C23A G35A C37A A39G G44C, the self-cleavage was 0.1. C23A G35U U38C G40C showed a self-cleavage of 0.05. C23A G36A A41G C42A showed a self-cleavage of 0.03. In the case of C23A G36C G40C, the self-cleavage is reported as 0.05. Work on C23A G36C G44U yielded a self-cleavage of 0.02. Variant C23A G40C U43G has a self-cleavage of 0.07. With C23A G44A C45A the self-cleavage was 0.02. In the case of C23A G44C C46G, the self-cleavage is reported as 0.04. With C23A U28C C31G C42U the self-cleavage was 0.04. C23A U28C G30A G44U showed a self-cleavage of 0.29. With C23A U28C G40C the self-cleavage was 0.05. Variant C23A U32A U38A has a self-cleavage of 0.15. Work on C23A U32C U34G C42U yielded a self-cleavage of 0.03. Variant C23A U32G C37U C46G has a self-cleavage of 0.04. In the case of C23A U34C C37A, the self-cleavage is reported as 0.05. C23A U34G G44A gave a self-cleavage of 0.15. Work on C23A U43A G44A yielded a self-cleavage of 0.09. For C23G A24C G29C C46A, the self-cleavage was 0.61. With C23G A24G A41G the self-cleavage was 0.08. Work on C23G A24G U34A yielded a self-cleavage of 0.01. For C23G A24U A39G, the self-cleavage was 0.04. C23G A26C A39C gave a self-cleavage of 0.05. In the case of C23G A26C G27A U28G C31A, the self-cleavage is reported as 0.72. For C23G A26C G30C C46A, the self-cleavage was 0.05. C23G A26C G36A A41U U43C gave a self-cleavage of 0.03. For C23G A26C G44U, the self-cleavage was 0.17. With C23G A26C U32C G40U C42A the self-cleavage was 0.01. With C23G A26U A41G C45A the self-cleavage was 0.06. With C23G A26U C37G U38G the self-cleavage was 0.02. For C23G A26U G29U U32G, the self-cleavage was 0.53. C23G C31G A41G gave a self-cleavage of 0.03. For C23G C31G C46A, the self-cleavage was 0.29. C23G C31U G36C showed a self-cleavage of 0.06. In the case of C23G C37A C46U, the self-cleavage is reported as 0.03. Work on C23G C37G C45G yielded a self-cleavage of 0.01. For C23G C37G U43A C45A, the self-cleavage was 0.04. C23G C37U A41C gave a self-cleavage of 0. For C23G G27A C37A C45G, the self-cleavage was 0.02. C23G G27U C37U gave a self-cleavage of 0.01. For C23G G27U C45U, the self-cleavage was 0.78. C23G G29A C31G G36A C45G showed a self-cleavage of 0.03. Work on C23G G29A G30C C37G yielded a self-cleavage of 0.12. Variant C23G G29U C37A U38G has a self-cleavage of 0.01. C23G G29U G30A U38A gave a self-cleavage of 1.64. For C23G G30A G33U G44A, the self-cleavage was 0.03. With C23G G30C G36U the self-cleavage was 0.05. With C23G G30C U34G the self-cleavage was 0.05. For C23G G30U U38A, the self-cleavage was 0.15. With C23G G33A G35U C37U the self-cleavage was 0.14. C23G G35A G36U showed a self-cleavage of 0.07. For C23G G35U U38G, the self-cleavage was 0.01. In the case of C23G G36A A39C, the self-cleavage is reported as 0.05. In the case of C23G G36C G40U, the self-cleavage is reported as 0.16. C23G U28C G29U gave a self-cleavage of 0.38. C23G U32A U34C showed a self-cleavage of 0.04. In the case of C23G U32G G36A A41G, the self-cleavage is reported as 0.13. C23G U34C C37U showed a self-cleavage of 0.01. C23G U38C C46U showed a self-cleavage of 0.39. C23G U38G A39C showed a self-cleavage of 0.02. C23U A24C U28G G29U G33C showed a self-cleavage of 0.03. With C23U A24G C31A the self-cleavage was 0.25. With C23U A24G U38G C45G the self-cleavage was 0. For C23U A24U G30C C31U G33U, the self-cleavage was 0.01. For C23U A25C U32G C46G, the self-cleavage was 0.04. Variant C23U A25G A26C U38C A39U C42G has a self-cleavage of 0.02. In the case of C23U A25G U32C, the self-cleavage is reported as 0.1. In the case of C23U A26C U32G, the self-cleavage is reported as 0.52. Variant C23U A26G C31A has a self-cleavage of 0.14. C23U A26G C31A G40C A41G gave a self-cleavage of 0.01. Work on C23U A26G G35A yielded a self-cleavage of 0.2. Work on C23U A26U G30C G44U yielded a self-cleavage of 0.09. With C23U A26U U38A the self-cleavage was 0.31. C23U A39G G44U gave a self-cleavage of 0. In the case of C23U A39U G40C, the self-cleavage is reported as 0.11. With C23U A39U G40U the self-cleavage was 0.32. For C23U C31A G33A U34G, the self-cleavage was 0.01. Work on C23U C31A G36C yielded a self-cleavage of 0.01. Work on C23U C31A U32C C42A C45G yielded a self-cleavage of 0.02. C23U C31G C37A G40A gave a self-cleavage of 0.04. Work on C23U C31G C46U yielded a self-cleavage of 0.04. In the case of C23U C42U C46U, the self-cleavage is reported as 0.18. C23U G27A G30U A39C G44C gave a self-cleavage of 0.06. Work on C23U G27A G40C yielded a self-cleavage of 0.09. In the case of C23U G27U G29C G35U C37A, the self-cleavage is reported as 0.01. Work on C23U G27U G29U G30A G40A yielded a self-cleavage of 0.1. Variant C23U G27U U34C G35U G40C C42A has a self-cleavage of 0.02. C23U G29A A41U showed a self-cleavage of 0.76. C23U G29A G44C gave a self-cleavage of 0.39. With C23U G29C G35A A41U the self-cleavage was 0.17. Work on C23U G29C G40A C45U yielded a self-cleavage of 0.07. In the case of C23U G29C G44U, the self-cleavage is reported as 0.08. Work on C23U G29U C42A U43A yielded a self-cleavage of 0.12. Work on C23U G29U G30C G35U yielded a self-cleavage of 0.06. With C23U G30A G33A U34G A39G C45U the self-cleavage was 0.12. C23U G30A U38C showed a self-cleavage of 2.26. With C23U G30C G33U C45G the self-cleavage was 0.1. Variant C23U G30C G35C has a self-cleavage of 0.14. C23U G30U U32G C45G gave a self-cleavage of 0.1. For C23U G33A C37A, the self-cleavage was 0.05. C23U G33A G35A showed a self-cleavage of 0.02. Work on C23U G33C G44C yielded a self-cleavage of 0.05. C23U G33C U43A gave a self-cleavage of 0.02. For C23U G35A A39U G44A, the self-cleavage was 0.1. C23U G35C G44A showed a self-cleavage of 0.05. C23U G35U U38G showed a self-cleavage of 0.02. C23U G36A G44C gave a self-cleavage of 0.08. For C23U U28G G30U C45U, the self-cleavage was 1.29. For C23U U28G U34G U43A, the self-cleavage was 0.02. Work on C23U U32C C45A yielded a self-cleavage of 0.12. C23U U34A C46U showed a self-cleavage of 0.33. For C23U U43A C46U, the self-cleavage was 0.11. For A24C A25U U32C G35A, the self-cleavage was 0.03. Work on A24C A26C C46G yielded a self-cleavage of 0.2. For A24C A26C G29U U38A A39U C42G C46G, the self-cleavage was 0.02. A24C A26U G30U showed a self-cleavage of 0.16. In the case of A24C C31U G40C, the self-cleavage is reported as 0.02. A24C G29U G30C showed a self-cleavage of 0.26. In the case of A24C G30U U38G C46G, the self-cleavage is reported as 0.01. A24C G33U C46A showed a self-cleavage of 0.02. For A24C G36U A39C, the self-cleavage was 0.01. A24C U28A C37A G44C gave a self-cleavage of 0. Variant A24C U34G G44A has a self-cleavage of 0.05. For A24G A25C A41U U43G, the self-cleavage was 0.04. For A24G A25C C31A G36U U38A, the self-cleavage was 0.02. A24G A25C C31G gave a self-cleavage of 0.01. A24G A25G U38A C46A showed a self-cleavage of 0.24. In the case of A24G A25U C46A, the self-cleavage is reported as 1.54. With A24G A26C C31A the self-cleavage was 0.31. Variant A24G A26C C37A has a self-cleavage of 0.02. With A24G A26U G27U G29A G35U the self-cleavage was 0.04. In the case of A24G A26U U34A, the self-cleavage is reported as 0.03. With A24G A39G C46U the self-cleavage was 0.06. For A24G C31A G35U C46G, the self-cleavage was 0.05.
